Data taken from the supplement of paper PMC9174493.
The list shows a part of the results. Single values of this set are uncertain. Values with irradiation are relative to irradiated vehicle.

What was measured:
A549-Dual [1] = test: NF-kB reporter (SEAP) activity, viability-corrected, relative to vehicle (fold change vs vehicle); higher = more activation of STING-IRF / NF-kB immune response reporter; settings: 10 µM
A549-Dual [2] = test: ISRE reporter (Lucia luciferase) activity, viability-corrected, relative to vehicle (fold change vs vehicle); higher = more activation of STING-IRF / NF-kB immune response reporter; settings: 10 µM
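Throughout, for NF-kB reporter (SEAP) activity, viability-corrected, relative to vehicle: viability correction based on the alamar blue assay, with concentrations leaving 10% survival or less dropped.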

Structure (SMILES)	NF-kB reporter (A549-Dual [1]; irradiation: 8 Gy/4 fr)	NF-kB reporter (A549-Dual [1]; irradiation: none)	ISRE reporter (A549-Dual [2]; irradiation: 8 Gy/4 fr)	ISRE reporter (A549-Dual [2]; irradiation: none)
O.OCC(O)C(O)C(OC1OC(CO)C(O)C(O)C1O)C(O)CO (stereo not given) [Lactitol monohydrate]	1.08	0.52	1.05	0.458
CCC1OC(=O)C(C)C(OC2CC(C)(OC)C(O)C(C)O2)C(C)C(OC2OC(C)CC(N(C)C)C2O)C(C)(OC)CC(C)C(=O)C(C)C(O)C1(C)O (stereo not given) [Clarithromycin]	1.13	1.14	1.07	0.971
O=c1ccn(C2OC(COP(=O)(O)O)C(O)C2O)c(=O)[nH]1 (stereo not given) [Uridine 5'-monophosphate]	1.15	0.837	0.96	0.983
COC(=O)C1=C(C)NC(C)=C(C(=O)OC(C)(C)CN(C)CCC(c2ccccc2)c2ccccc2)C1c1cccc([N+](=O)[O-])c1 (stereo not given) [Lercanidipine]	0.512	0.605	0.547	1.45
NCCC(=O)O [β-Alanine]	0.535	0.689	0.274	0.454
CCOC(=O)C(CCc1ccccc1)NC1CSC(c2cccs2)CN(CC(=O)O)C1=O.Cl (stereo not given) [Temocapril HCl]	0.602	1.07	0.683	1.04
CC(N)C(O)c1cccc(O)c1.O=C(O)C(O)C(O)C(=O)O (stereo not given) [Metaraminol Bitartrate]	0.811	0.967	0.771	0.605
COc1ncnc(NS(=O)(=O)c2ccc(N)cc2)c1OC [Sulfadoxine]	0.996	0.956	0.92	0.799
O=C1CN(/N=C/c2ccc([N+](=O)[O-])o2)C(=O)N1 [Nitrofurantoin]	0.85	0.928	0.858	0.772
CC(N)C12CC3CC(CC(C3)C1)C2 (stereo not given) [Rimantadine]	0.953	1.03	1.13	0.97
COC1(NC(=O)CSCC(N)C(=O)O)C(=O)N2C(C(=O)[O-])=C(CSc3nnnn3C)CSC21.[Na+] (stereo not given) [Cefminox Sodium]	0.708	0.898	0.727	0.744
COc1ccc(C2OCC3C(c4ccc5c(c4)OCO5)OCC23)cc1OC (stereo not given) [Fargesin]	0.721	0.734	0.634	0.536
CN(CCOc1ccc(NS(C)(=O)=O)cc1)CCc1ccc(NS(C)(=O)=O)cc1 [Dofetilide]	0.761	1.15	0.897	1.08
CC(=O)SC1CC2=CC(=O)CCC2(C)C2CCC3(C)C(CCC34CCC(=O)O4)C12 (stereo not given) [Spironolactone]	0.528	0.782	0.349	0.522
COc1ccnc(CS(=O)c2nc3ccc(OC(F)F)cc3[nH]2)c1OC (stereo not given) [Pantoprazole]	0.665	0.97	0.696	0.794
Cl.Nc1cc(Cl)c(NC2=NCCN2)c(Cl)c1 [Apraclonidine HCl]	0.624	0.572	0.633	0.449
Cc1cc(O)c(C(=O)NC(C(=O)NC2C(=O)N3C(C(=O)[O-])=C(CSc4nnnn4C)CSC23)c2ccc(O)cc2)cn1.[Na+] (stereo not given) [Cefpiramide sodium]	0.635	0.969	0.678	0.823
CCCc1nn(C)c2c(=O)[nH]c(-c3cc(S(=O)(=O)N4CCN(C)CC4)ccc3OCC)nc12 [Sildenafil]	1.02	1.52	0.915	0.968
CN(C)CCC=C1c2ccccc2CCc2ccccc21.Cl [Amitriptyline HCl]	0.808	0.827	1.06	1.17
O=P(O)(O)OC1C(OP(=O)(O)O)C(OP(=O)(O)O)C(OP(=O)(O)O)C(OP(=O)(O)O)C1OP(=O)(O)O (stereo not given) [Sodium phytate hydrate]	0.789	0.892	0.773	0.712
